The results in this text go back to article PMC4336329 (PLoS ONE, 2015).

The whole screen tested about 310,000 compounds, of which about 14,000 (4.5%) showed an effect of 50% or more. Effects have a minus sign here. The list shows a part of the results.
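Also: peak tail current of the secondary pulse compared with the same well before compound.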

The target in this experiment is human ether-à-go-go-related gene (hERG) potassium channel (human, UniProt Q12809). Briefly: primary screen, population patch clamp on CHO cells stably expressing hERG.
human ether-à-go-go-related gene (hERG) potassium channel, sequence (Q12809 whole entry, looked up): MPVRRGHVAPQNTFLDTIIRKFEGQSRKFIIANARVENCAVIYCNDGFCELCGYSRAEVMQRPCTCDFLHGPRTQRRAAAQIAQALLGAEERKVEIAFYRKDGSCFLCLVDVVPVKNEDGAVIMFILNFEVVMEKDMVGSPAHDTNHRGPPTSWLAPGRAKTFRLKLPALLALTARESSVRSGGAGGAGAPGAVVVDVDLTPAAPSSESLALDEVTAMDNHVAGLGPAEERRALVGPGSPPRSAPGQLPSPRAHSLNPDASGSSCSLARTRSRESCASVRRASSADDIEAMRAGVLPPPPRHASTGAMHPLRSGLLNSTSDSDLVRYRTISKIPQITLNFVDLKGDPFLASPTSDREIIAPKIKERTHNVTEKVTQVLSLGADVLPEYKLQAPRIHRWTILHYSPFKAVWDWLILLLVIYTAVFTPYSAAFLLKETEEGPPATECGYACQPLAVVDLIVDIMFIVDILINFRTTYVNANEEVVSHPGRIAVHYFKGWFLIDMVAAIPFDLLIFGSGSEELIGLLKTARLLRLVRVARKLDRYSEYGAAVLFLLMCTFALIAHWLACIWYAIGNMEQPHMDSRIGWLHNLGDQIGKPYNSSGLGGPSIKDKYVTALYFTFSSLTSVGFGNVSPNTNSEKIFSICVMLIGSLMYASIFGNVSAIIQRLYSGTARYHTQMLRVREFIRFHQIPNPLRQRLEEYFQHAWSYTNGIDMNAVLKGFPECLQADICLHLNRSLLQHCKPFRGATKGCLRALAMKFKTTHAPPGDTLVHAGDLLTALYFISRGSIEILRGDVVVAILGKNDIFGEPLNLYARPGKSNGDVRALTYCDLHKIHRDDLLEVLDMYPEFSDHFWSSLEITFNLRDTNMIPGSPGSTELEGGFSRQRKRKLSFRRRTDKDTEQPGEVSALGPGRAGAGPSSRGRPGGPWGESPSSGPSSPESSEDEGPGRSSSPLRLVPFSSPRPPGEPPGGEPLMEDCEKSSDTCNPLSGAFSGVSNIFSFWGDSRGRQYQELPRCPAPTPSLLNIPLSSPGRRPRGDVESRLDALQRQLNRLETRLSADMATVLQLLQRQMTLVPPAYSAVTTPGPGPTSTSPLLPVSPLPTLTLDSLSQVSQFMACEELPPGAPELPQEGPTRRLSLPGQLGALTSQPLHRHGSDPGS
Regarding `CCOC(=O)C(C#N)C(c1cccnc1)c1c(C)[nH][nH]c1=O` (stereo not drawn), the “hERG current change (%, negative = inhibition) at 10uM” value came out at 17.4%.

Regarding `CCCc1sc(N2CCCC(C(N)=O)C2)nc1-c1ccccc1` (stereo not drawn), the “hERG current change (%, negative = inhibition) at 10uM” value is listed as -12.9%.

In the case of `O=S(=O)(Cc1cc(Sc2ccc(Cl)cc2)nc(-c2ccccc2)n1)c1ccccc1`, the “hERG current change (%, negative = inhibition) at 10uM” value was 0.42%.

Take `Cc1ccc(S(=O)(=O)c2c(C)nn(C(C)(C)C)c2OC(=O)C(C)(C)C)cc1`: the “hERG current change (%, negative = inhibition) at 10uM” value worked out at 15.6%.

As for `COc1cc2c(cc1NC(=O)c1cc(-c3ccncc3)nc3ccccc13)oc1ccccc12`, the “hERG current change (%, negative = inhibition) at 10uM” value is listed as -14.9%.

Consider `Cc1ccc(-n2ncc3c(=O)n(CC(=O)N(C(C)C)C(C)C)cnc32)cc1`, for which the “hERG current change (%, negative = inhibition) at 10uM” value turned out to be 14.4%.

Consider `C=CCN1C(=O)NC(=O)/C(=C/c2ccc(OC)c(COc3ccc(NC(C)=O)cc3)c2)C1=O`, for which the “hERG current change (%, negative = inhibition) at 10uM” value turned out to be 8.75%.

`COc1ccccc1NC(=O)c1ccc(CN2CCOCC2)cc1`: the “hERG current change (%, negative = inhibition) at 10uM” value was determined as 1.57%.

As for `COc1cc2c(cc1OC)CN(CC(=O)NC(=O)NCc1ccccc1)CC2`, the “hERG current change (%, negative = inhibition) at 10uM” value is -15.9%.

In the case of `C=CCc1ccc(O)c(-c2cc(CC=C)ccc2O)c1`, the “hERG current change (%, negative = inhibition) at 10uM” value is reported as 10.4%.

For the compound `COc1c(C)cc(C(=O)C2CCCN(C(=O)Cn3ccc(C)n3)C2)cc1C` (stereo not drawn), the “hERG current change (%, negative = inhibition) at 10uM” value is listed as -8.89%.

Turning to `Nc1c(C(=O)C2CC2)sc2nc3c(cc12)CCC3`, the “hERG current change (%, negative = inhibition) at 10uM” value amounted to 8.73%.

For `O=S(=O)(Nc1cccc(-c2nnco2)c1)c1ccc(Cl)cc1`, the “hERG current change (%, negative = inhibition) at 10uM” value is -3.31%.

Take `Cn1nc(C(C)(C)C)c([N+](=O)[O-])c1C(N)=O`: the “hERG current change (%, negative = inhibition) at 10uM” value came to 12.4%.

Consider `Cc1n[nH]c(C)c1CCC(=O)N/N=C/c1cccc([N+](=O)[O-])c1`, for which the “hERG current change (%, negative = inhibition) at 10uM” value is 14.8%.

Regarding `CC1CC(C)CN(CCOCCSc2ccc(Cl)cc2)C1.O=C(O)C(=O)O` (stereo not drawn), the “hERG current change (%, negative = inhibition) at 10uM” value is -72.4%.

As to `COCc1nc2ccccc2n1Cc1c(F)cccc1Cl`, the “hERG current change (%, negative = inhibition) at 10uM” value is reported as -12.7%.

On to `O=C(NCc1cccc2ccsc12)c1cccs1`, for which the “hERG current change (%, negative = inhibition) at 10uM” value is reported as -0.882%.

As to `O=C(Nc1ccccc1O)C(c1ccccc1)c1ccccc1`, the “hERG current change (%, negative = inhibition) at 10uM” value is given as -18.6%.

Take `COc1ccc(C(=O)NCC(O)CN2CCOCC2)cc1[N+](=O)[O-]` (stereo not drawn): the “hERG current change (%, negative = inhibition) at 10uM” value was 10.4%.

Regarding `COc1ccc(NC(=O)CN(C)C(=O)CCNC(=O)c2ccccc2OC)cc1`, the “hERG current change (%, negative = inhibition) at 10uM” value came out at 7.38%.

Consider `O=c1[nH]c(C2CCN(S(=O)(=O)c3ccccc3C(F)(F)F)CC2)nc2c1nnn2Cc1ccccc1`, for which the “hERG current change (%, negative = inhibition) at 10uM” value is on record as -30.1%.

`O=C(O)c1cccc(S(=O)(=O)Nc2ccc(S(=O)(=O)N3CCOCC3)cc2)c1`: the “hERG current change (%, negative = inhibition) at 10uM” value was 8.28%.

Consider `CCn1cc(S(=O)(=O)Nc2cc(C)ccc2F)cn1`, for which the “hERG current change (%, negative = inhibition) at 10uM” value was 3.63%.
